Assay results from the supplement of paper PMC4967469.
IC50 is the fitted dose that halves viability relative to control wells, and lower means more sensitive; fits outside the tested doses are given as limits. AUC, from the same fit, is the share of area under the viability curve across the 256-fold dose range; values near 1 show little effect. For part of these data: Where the top dose is marked as inferred, it is not printed in the source and was worked back from the curve model. For part of these data: An entry number marks a drug with two screens in the source, which often give different values.

Key:
Test in all cases: Viability of human cancer cell lines after 72 h of drug (GDSC screen)
[1] = compound: CC/C(=C(\c1ccccc1)c1ccc(OCCN(C)C)cc1)c1ccccc1 [Tamoxifen]; conditions: top dose 5 µM
Experimental: (§1)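 Human cancer cell lines in 384-well plates, medium with 10% serum, drug for 72 h over a 256-fold dose range (nine 2-fold or five 4-fold steps up to the top dose). Adherent lines were fixed and stained with the nucleic acid dye Syto60, suspension lines read with resazurin; signal relative to control wells, capped at 0 and 100%. One two-parameter sigmoid per drug and line, fitted in a mixed model over all curves with the slope shared within a line.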

[2] = compound: CCCC(=O)OCc1ccc(OC(=O)/C=C(C)/C=C/C=C(C)/C=C/C2=C(C)CCCC2(C)C)cc1 [VNLG/124]; conditions: top dose 5.12 µM; top dose inferred
Experimental: as §1

[3] = compound: CN(NC(=O)CC(=O)NN(C)C(=S)c1ccccc1)C(=S)c1ccccc1 [Elesclomol]; conditions: top dose 0.2 µM; top dose inferred
Experimental: as §1

[4] = compound: COc1cc(N2CCC(C(N)=O)CC2)ccc1Nc1nc(N)c(Cl)c(Nc2ccccc2S(=O)(=O)C(C)C)n1 [HG-5-88-01]; conditions: top dose 10 µM; top dose inferred
Experimental: as §1

[5] = compound: Cc1c(N)nc([C@H](CC(N)=O)NC[C@H](N)C(N)=O)nc1C(=O)N[C@H](C(=O)N[C@H](C)[C@@H](O)[C@H](C)C(=O)N[C@H](C(=O)NCCc1nc(-c2nc(C(=O)NCCC[S+](C)C)cs2)cs1)[C@@H](C)O)[C@@H](OC1OC(CO)C(O)C(O)C1OC1OC(CO)C(O)C(OC(N)=O)C1O)c1cnc[nH]1 [Bleomycin]; conditions: top dose 50 µM; screen: GDSC drug entry 1378; top dose inferred
Experimental: as §1

[6] = compound: Cc1ccc(NC(=O)c2ccc(CN3CCN(C)CC3)cc2)cc1Nc1nc(-c2cccnc2)cs1 [Masitinib]; conditions: top dose 20 µM
Experimental: as §1

[7] = compound: O=C(Nc1ccc(OC(F)(F)F)cc1)c1sccc1NCc1ccnc2ccccc12 [OSI-930]; conditions: top dose 10.24 µM
Experimental: as §1

[8] = compound: O=C(Nc1cccc(Nc2ncc(Br)c(NCCc3cnc[nH]3)n2)c1)N1CCCC1 [BX-912]; conditions: top dose 10.24 µM; top dose inferred
Experimental: as §1

Cell Line	AUC [1]	IC50 [1] [µM]	AUC [2]	IC50 [2] [µM]	AUC [3]	IC50 [3] [µM]	AUC [4]	IC50 [4] [µM]	AUC [5]	IC50 [5] [µM]	AUC [6]	IC50 [6] [µM]	AUC [7]	IC50 [7] [µM]	AUC [8]	IC50 [8] [µM]
OV-17R (ovary, adherent)	0.978	> 5	0.98	> 5.12	0.401	0.00598	0.961	> 10	0.642	9.09	0.796	14	0.957	> 10.2	0.922	> 10.2
OVCA433 (ovary, adherent)	0.97	> 5	0.983	> 5.12	0.455	0.00928	0.938	> 10	0.55	4.35	0.953	> 20	0.977	> 10.2	0.924	> 10.2
JHOS-2 (ovary, adherent)	0.98	> 5	0.983	> 5.12	0.326	0.00375	0.952	> 10	0.417	1.78	0.938	> 20	0.97	> 10.2	0.947	> 10.2
SK-MG-1 (glioma, adherent)	0.986	> 5	0.985	> 5.12	0.41	0.00708	0.945	> 10	0.293	0.807	0.816	11.3	0.98	> 10.2	0.897	> 10.2
ESO26 (oesophagus, adherent)	0.961	> 5	0.989	> 5.12	0.48	0.0111	0.957	> 10	0.653	8.05	0.879	18.5	0.989	> 10.2	0.811	5.07
SNU-81 (large intestine, adherent)	0.98	> 5	0.982	> 5.12	0.908	> 0.2	0.887	> 10	0.68	11.9	0.956	> 20	0.98	> 10.2	0.965	> 10.2
D-566MG (glioma, adherent)	0.959	> 5	0.984	> 5.12	0.524	0.0146	0.937	> 10	0.548	4.22	0.873	18.7	0.972	> 10.2	0.803	4.98
OC-314 (ovary, adherent)	0.987	> 5	0.991	> 5.12	0.931	> 0.2	0.985	> 10	0.186	0.435	0.884	16.3	0.987	> 10.2	0.963	> 10.2
RCC-FG2 (kidney, adherent)	0.964	> 5	0.977	> 5.12	0.462	0.00958	0.96	> 10	0.831	44.6	0.813	14.8	0.978	> 10.2	0.943	> 10.2
YH-13 (glioma, adherent)	0.978	> 5	0.974	> 5.12	0.613	0.026	0.905	> 10	0.483	2.8	0.891	> 20	0.986	> 10.2	0.784	4.63
RCC-ER (kidney, adherent)	0.959	> 5	0.961	> 5.12	0.551	0.0175	0.897	> 10	0.744	17.3	0.875	> 20	0.975	> 10.2	0.961	> 10.2
RCC-JF (kidney, adherent)	0.981	> 5	0.983	> 5.12	0.27	0.00253	0.975	> 10	0.596	5.94	0.777	9.09	0.968	> 10.2	0.83	7.56
EMC-BAC-2 (lung adenocarcinoma, adherent)	0.963	> 5	0.981	> 5.12	0.458	0.00939	0.909	> 10	0.55	4.38	0.922	> 20	0.982	> 10.2	0.764	4.4
OV-56 (ovary, adherent)	0.977	> 5	0.987	> 5.12	0.543	0.0163	0.975	> 10	0.449	2.28	0.884	> 20	0.98	> 10.2	0.964	> 10.2
OVK-18 (ovary, adherent)	0.968	> 5	0.982	> 5.12	0.598	0.024	0.977	> 10	0.637	7.82	0.911	> 20	0.905	> 10.2	0.932	> 10.2
NCC021 (kidney, adherent)	0.981	> 5	0.984	> 5.12	0.811	0.128	0.943	> 10	0.493	2.99	0.888	> 20	0.974	> 10.2	0.962	> 10.2
D-423MG (glioma, adherent)	0.978	> 5	0.968	> 5.12	0.525	0.0149	0.886	> 10	0.184	0.273	0.875	> 20	0.963	> 10.2	0.778	5.1

Cell Line	AUC [1]	IC50 [1] [µM]	AUC [2]	IC50 [2] [µM]	AUC [3]	IC50 [3] [µM]	AUC [4]	IC50 [4] [µM]	AUC [5]	IC50 [5] [µM]	AUC [6]	IC50 [6] [µM]	AUC [7]	IC50 [7] [µM]	AUC [8]	IC50 [8] [µM]
Hey (ovary, adherent)	0.986	> 5	0.987	> 5.12	0.311	0.00382	0.964	> 10	0.158	0.303	0.863	15.7	0.981	> 10.2	0.893	> 10.2
DOV13 (ovary, adherent)	0.925	> 5	0.977	> 5.12	0.271	0.00249	0.866	> 10	0.51	3.35	0.962	> 20	0.972	> 10.2	0.978	> 10.2
SNU-407 (large intestine, adherent)	0.981	> 5	0.976	> 5.12	0.616	0.0277	0.898	> 10	0.592	5.83	0.843	17.8	0.958	> 10.2	0.916	> 10.2
SK-MEL-5 (melanoma, adherent)	0.98	> 5	0.98	> 5.12	0.665	0.0401	0.94	> 10	0.771	23.6	0.896	> 20	0.98	> 10.2	0.962	> 10.2
EMC-BAC-1 (lung adenocarcinoma, adherent)	0.982	> 5	0.946	> 5.12	0.519	0.0142	0.718	2.86	0.662	9.44	0.879	> 20	0.955	> 10.2	0.665	1.98
UWB1.289 (ovary, adherent)	0.977	> 5	0.98	> 5.12	0.729	0.0794	0.942	> 10	0.713	17.1	0.972	> 20	0.965	> 10.2	0.926	> 10.2
JHOS-3 (ovary, adherent)	0.981	> 5	0.959	> 5.12	0.893	> 0.2	0.844	> 10	0.865	> 50	0.965	> 20	0.983	> 10.2	0.976	> 10.2
SK-GT-4 (oesophagus, adherent)	0.969	> 5	0.982	> 5.12	0.25	0.00197	0.947	> 10	0.826	40.7	0.876	> 20	0.982	> 10.2	0.919	> 10.2
RCC-JW (kidney, adherent)	0.978	> 5	0.985	> 5.12	0.462	0.0098	0.979	> 10	0.245	0.563	0.849	15.6	0.955	> 10.2	0.83	6.69
QGP-1 (pancreas, adherent)	0.965	> 5	0.978	> 5.12	0.94	> 0.2	0.932	> 10	0.942	> 50	0.921	> 20	0.973	> 10.2	0.909	> 10.2
CADO-ES1 (Ewing sarcoma, suspension)	0.984	> 5	0.943	> 5.12	0.608	0.025	0.979	> 10	0.661	8.83	0.901	> 20	0.987	> 10.2	0.951	> 10.2
TE-4 (oesophagus, adherent)	0.95	> 5	0.981	> 5.12	0.522	0.0143	0.939	> 10	0.664	8.93	0.888	> 20	0.97	> 10.2	0.967	> 10.2
RCC-AB (kidney, adherent)	0.96	> 5	0.969	> 5.12	0.778	0.107	0.978	> 10	0.659	9.91	0.793	12.4	0.948	> 10.2	0.83	9.36
KYAE-1 (oesophagus, suspension)	0.937	> 5	0.955	> 5.12	0.888	> 0.2	0.883	> 10	0.953	> 50	0.819	13	0.979	> 10.2	0.952	> 10.2
OACp4C (oesophagus, adherent)	0.973	> 5	0.949	> 5.12	0.474	0.0105	0.778	4.9	0.792	27.8	0.887	> 20	0.982	> 10.2	0.669	2.1
OCI-LY7 (B-cell lymphoma, suspension)	0.997	> 5	–	–	0.425	0.00824	0.996	> 10	0.975	> 50	–	–	–	–	–	–
SK-GT-2 (stomach, adherent)	0.984	> 5	–	–	0.529	0.0151	0.932	> 10	0.756	18	–	–	–	–	–	–
